The values below come from PMC12136788.

This is one part of the list.

The labels stand for the following.
B1: chr7:44244176:44244177:+_ENSG00000106636_ENST00000223369|hu_mus|hu_hu_hu_mus_False|58_98 (ssRNA)
RNA: GGGAGUUCUACAGUCCGACGAUCACUGUCGCUCCGGACGUAGACGUGGCAAAGAUACUCUUGUUCUUUGACAGAAGCUCUAGUGCCUUUCCCCGAGCGUUCCACAAUCAGUUGACUUGUAAAGGUCAUGAAUUCCUGCACACUCAACAGAGGAUUGAGCAUCA
B2: chr6:40197388:40197389:+_ENSMUSG00000057716_ENSMUST00000061740|mus_hu|FALSE|FALSE (ssRNA)
RNA: GGGAGUUCUACAGUCCGACGAUCGAGACACUGGGGUGGAUUUAUUCCACCUCUGUUUGGGUGCUAGCCACUAAGACUGUUAUUUUGGGAUUCAUGGCCUUGAAUAUCAAGAGGGAAAGGAAGAGGAUGGAAAGAGUCAAGAGUCAACAGAGGAUUGAGCAUCA
B3: chr5:71490377:71490378:+_ENSG00000131711_ENST00000296755|hu_hu|motif|central (ssRNA)
RNA: GGGAGUUCUACAGUCCGACGAUCACCUACUCCCAUUUUUUGGAAAAGAAUGACAGGAUCAAUAGUAUUGCCUACACUUCGGAACAGAGGUUCUGGUUUCAUGGACAAUUUGUUUAGGUACUGGAGAGUGAAGCAGGCUUCUUCCAACAGAGGAUUGAGCAUCA
B4: 165827124_165829745_1052_3pUTR_ENSG00000112541_ENST00000354448|human|control|control (ssRNA)
RNA: GGGAGUUCUACAGUCCGACGAUCGGCAUGCACAGGAUGUUCCGCGUGGUGUAGCCUGUGUACAAGUCUACUUCUCUGUUAAAGCGUGGGUCUGCAUAGGCAUCUGGAAUGUUCAGGACUUCCCCUGUUCUUGCUACUUGGCCACAACAGAGGAUUGAGCAUCA
B5: chr1:58468927:58468928:-_ENSMUSG00000026034_ENSMUST00000148330|mus_mus|mus_mus_mus_hu_False|28_98 (ssRNA)
RNA: GGGAGUUCUACAGUCCGACGAUCAAUUACUGAAAAAUGAAAGAUGUACCUUAGCUAUGUACUUAAUGAACCAAAUUACCCAAACAAAAUAAACAUGGCAAUAUAAAAAGCUAUACAAUUUACAAAGCUGUACAAAAUAACUUACAACAGAGGAUUGAGCAUCA
B6: chr7:7679991:7679992:-_ENSG00000106399_ENST00000396682|hu_hu|hu_hu_hu_mus_False|18_68 (ssRNA)
RNA: GGGAGUUCUACAGUCCGACGAUCUGGGAUGAAUCUUUUCCAGCUUCCCCACGAAGCACACGGGCCGGUCGAUGAAUUGUGGUAACAUGCUGGCGUUGACGCGCGCUUUGGGGAGCUCCAUCAUGUCCUCCAUGAUUCUGCCGCCAACAGAGGAUUGAGCAUCA
B7: chr2:64119684:64119685:-_ENSG00000143952_ENST00000409558|hu_hu|FALSE|FALSE (ssRNA)
RNA: GGGAGUUCUACAGUCCGACGAUCACAUCGAAAGUAACUUAAAAACAAGGAUCCAAGGGGGCCAUACUUCAUAUGUUAUCUAAAUGUUAAUAUGAGAACUCAAAAGUAGGCAGAUUAUAUGAAUACAUAUUCUUACCUCUGCUACAACAGAGGAUUGAGCAUCA
B8: chr4:39918803:39918804:-_ENSG00000121892_ENST00000303538|hu_mus|FALSE|FALSE (ssRNA)
RNA: GGGAGUUCUACAGUCCGACGAUCUACGUGUUCAGACAGGUCGCUGACUGAUGAUCUGCCCAGCACCAGGACUUGAUUGAAAAAAUUGGCAAUACAUGCUUCAAUAGUCUGGACUGUCCUUUUCAGUAGGACUUUUGCAAGGUCCAACAGAGGAUUGAGCAUCA
B9: chr11:53076483:53076484:-_ENSMUSG00000020361_ENSMUST00000020630|mus_mus|motif|central (ssRNA)
RNA: GGGAGUUCUACAGUCCGACGAUCUUCAAAUAAUUUUGGUCUUUCUUCAGAUUCCUGGAACCGUGUCUUAAUGGGUUGACCGGAACUUUUUAAUUCAGCCAAUUUGUCUACAUAAACUUGCUUUGGUUGAUCUUCUCCAUCUUCCAACAGAGGAUUGAGCAUCA
B10: chr7:75932113:75932114:+_ENSG00000106211_ENST00000248553|hu_hu|hu_hu_hu_mus_False|58_58 (ssRNA)
RNA: GGGAGUUCUACAGUCCGACGAUCCUGCGACCACUCAUCGGGCAACCGGGGCACCCCGAAAGCUUGAUCGAAGAGGCGGCUAUGCGGAGGGUACCAGUCCCGGAAUGGUUCCCAGCUCGGGCUCCGCAGCAGCGAGAAGGGCACCAACAGAGGAUUGAGCAUCA
B11: chr2:63824656:63824657:+_ENSG00000014641_ENST00000394423|hu_hu|FALSE|FALSE (ssRNA)
RNA: GGGAGUUCUACAGUCCGACGAUCGGUAUUGGCUGGAUUACCCACAACAAUAACCUUAACUGACUUCUUGGCGUAUUUAUCUAAGGCUGCACCCUGGGAUUUGAAGAUUUUCACAUUUGCUUUCAGUAAAUCUUUUCUCUCCAUCAACAGAGGAUUGAGCAUCA
B12: 87340232_87340352_1355_CDS_ENSMUSG00000003382_ENSMUST00000170036|mouse|control|control (ssRNA)
RNA: GGGAGUUCUACAGUCCGACGAUCGUCACUGGGAGUGCUAAUGGACACAGAGGGCCAGGUGGGUGAGGGGUGGGCAAACCCGGUGCCUUUCCCCUCUUCUAUGGUCCUGCUCCGCAUGCUGUCCACUUCUUGGGUCUGUUCCUCCAACAGAGGAUUGAGCAUCA
B13: chr19:60949100:60949101:-_ENSMUSG00000024997_ENSMUST00000025961|mus_mus|FALSE|FALSE (ssRNA)
RNA: GGGAGUUCUACAGUCCGACGAUCGGCAGAGGCAGACCACAGUAUGUCUGUCAAACAGGUUCUUCUAGAAGCAACAGGCCUAAGAACUGUUGAGGCAGAAAUACUCCGGGAAAUAGCACUUGCAUGACGAGCAACCGAGGACCACAACAGAGGAUUGAGCAUCA
B14: chr7:141438946:141438947:+_ENSG00000106028_ENST00000265304|hu_hu|motif|central (ssRNA)
RNA: GGGAGUUCUACAGUCCGACGAUCAAGUACCUGUAAUACAGGUCUUCGAAACAUGGCUUCUAUUUUCUUUUCUUACAGUCGGAUCUUUAGGCUUUUCCUGACGAUCUAACCCGAGCAGCCCAGCCACGCAGGGGAUCACUUCCGCAACAGAGGAUUGAGCAUCA

This experiment addresses T1, UNK ZnF1-3 (human, UniProt Q9C0B0 31-174).
T1 sequence: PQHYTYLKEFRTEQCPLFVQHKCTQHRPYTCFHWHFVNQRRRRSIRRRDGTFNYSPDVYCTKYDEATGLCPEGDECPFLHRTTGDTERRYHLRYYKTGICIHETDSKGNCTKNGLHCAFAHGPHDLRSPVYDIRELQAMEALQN
The experiment is described as follows: nsRBNS (natural sequence RNA bind-n-seq); RBNS binding buffer (assumed for nsRBNS): 25 mM Tris pH 7.5, 150 mM KCl, 3 mM MgCl2, 0.01% Triton X-100, 500 ug/ml BSA, 20 U/ml SUPERase-In, 4 C; UNK is unkempt and MSI1 is Musashi-1; names of the RNAs are library labels; protein concentration not given here; high values mean tight binding.
Molecule B1 displayed a binding signal of 0.642 enrichment R. Next, B2: 1.37 enrichment R; B3: 1.19 enrichment R; B4: 0.591 enrichment R. For the molecule B5, the binding signal was 1.35 enrichment R.

For B6, the binding signal came to 0.959 enrichment R. As for B7, the binding signal amounted to 1.32 enrichment R. Take B8: the binding signal was 0.573 enrichment R. Next, B9: 0.462 enrichment R; B10: 0.965 enrichment R. On to B11, for which the binding signal was 0.575 enrichment R. Next, B12: 0.515 enrichment R; B13: 1.45 enrichment R; B14: 0.597 enrichment R.
